95 compounds from PubChem BioAssay AID1508623 (National Center for Advancing Translational Sciences (NCATS), 2021) can be followed below.

Out of some 48,000 compounds screened, about 450 (0.94%) were called active. Not shown: some 19% with an inconclusive outcome. Calls come from the whole dose curve; as a rule, active = well fitted inhibition curve with a large enough effect; inconclusive = small, poorly fitted or top-dose-only effect; inactive = no such curve, though single readings can be large or run the other way. The list shows a part of the results.

This assay is described as follows: Primary qHTS for Identification of Small Molecule Inhibitors of Huntingtin Promoter Activity. Note: nearly all actives have a fitted effect of over 50% in size. Particulars: HEK293 HTT promoter firefly luciferase reporter (activity 0% = vehicle and -100% = no light), 24 h; series mostly up to 57.5 µM; activity change, negative = inhibition: at the top concentration. The procedure, abridged: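 Luminescence was read after Dual-Glo reagent and a 10 min room-temperature incubation. Values were normalized to vehicle (0% activity) and zero RLU (-100% activity). Reporter HEK293 cells had been exposed to compounds (up to 57.5 uM final) for 24 h.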
For `Cc1cccc(N2CCN(C(=O)CN3C(=O)COc4ccc(S(=O)(=O)N5CCCCCC5)cc43)CC2)c1C`, the “activity change, negative = inhibition” value is inactive: -27.9%.
In the case of `CSc1ncc(C(=O)N2CCN(c3cc(C)ccc3C)CC2)c(C)n1`, the “activity change, negative = inhibition” value was inactive: -22.6%.
As to `CCn1c(=N)c(C(=O)NCc2ccccc2)cc2c(=O)n3cc(C)ccc3nc21`, the “activity change, negative = inhibition” value was inactive: -6.11%.
`CCCCNC(=O)C(Cc1ccccc1)NS(=O)(=O)c1ccc2c(c1)c(=O)n(C)c(=O)n2C` (stereo not given): the “activity change, negative = inhibition” value was inactive: -8.75%.
To `CCC1CN(C(=O)NCc2ccc(C)cc2)c2ccccc2O1` (stereo not given) belongs inactive: -14.6%; to `CCOc1ccc(-c2ncnn2-c2sc3c(c2C#N)CCCCC3)cc1`, inactive: -4.59% [at 11.5 µM]; to `Cc1cc(C)c(OCC(=O)N(Cc2ccco2)Cc2ccco2)c(C)c1`, inactive: -19%.
As to `COc1ccc(Cn2ccc3nc(C)c(C(=O)Nc4cc(C)cc(C)c4)cc3c2=O)cc1`, the “activity change, negative = inhibition” value is inactive: -21.4%.
Then `CSc1ncc(C(=O)Nc2c(C)cccc2C)c(-c2ccccc2)n1`, with inactive: -1.19%.
For the compound `Cc1nc2ccccc2c(=O)n1-c1ccc(NC(=O)c2cccc([N+](=O)[O-])c2)cc1`, the “activity change, negative = inhibition” value is inactive: -19.2%.
With `COc1cc(NC(=O)CN2c3ccccc3S(=O)(=O)c3ccccc32)cc(OC)c1`, the “activity change, negative = inhibition” value is inactive: -1.65%.
With `Cc1ccc(Nc2nnc(-c3ccc(C)c(S(=O)(=O)N4CCN(C)CC4)c3)c3ccccc23)cc1`, the activity change, negative = inhibition was inactive: -14.4% [at 11.5 µM].
To `COCCNC(=O)CSc1nc(-c2cc(OC)c(OC)c(OC)c2)[nH]c1-c1ccc(Cl)cc1` belongs inactive: 11%; to `CCOCCCn1c(SCC(=O)OCC)nc2c(sc3ccccc32)c1=O`, inactive: -6.33%; to `Cc1ccc(C(=O)CSc2nc(-c3ccccc3)nc3c2CCCC3)c(C)c1`, inactive: -17.9%.
To `CCCCn1cc(S(=O)(=O)c2ccc(OC)cc2)c(=O)c2cc(CC)ccc21` belongs inactive: -26.7%; to `O=S(=O)(c1ccccc1)c1nnn2c1nc(NC1CCCCC1)c1sccc12`, inactive: -7.16%; to `Cn1c(=O)c2c(SCC(=O)Nc3ccccc3C(F)(F)F)nc(C3CCCC3)nc2n(C)c1=O`, inactive: -10.2%.
Then `Cc1ccc(Cl)cc1NC(=O)Nc1nnc(N(C)Cc2ccccc2)s1`, with inactive: -25%; and `CCc1ccc(NC(=O)CN(c2ccc(C)cc2)S(=O)(=O)c2cccs2)cc1`, with inactive: 2.85%; and `COc1ccc(-c2cc(C)no2)cc1S(=O)(=O)N1CCc2ccccc21`, with inactive: -25%.
As to `Cc1ccc(CN(C(=O)c2ccccc2)c2ccccn2)o1`, the “activity change, negative = inhibition” value is inactive: -11.4%.
Then `O=C(O)CCCCn1c(SCC(=O)Nc2ccccc2C(F)(F)F)nc2ccsc2c1=O`, with inactive: 3.56%.
On to `Cc1ccc(C(=O)Nc2ccc(S(=O)(=O)N3CCC(c4nc5ccccc5s4)CC3)cc2)cc1`, for which the “activity change, negative = inhibition” value was inactive: -9.35%.
Then `Cc1ccc(OCC(=O)Nc2nnc(S(=O)(=O)N3c4ccccc4CC3C)s2)cc1` (stereo not given), with inactive: -12.1%.
As for `Cc1ccc(NC(=O)c2nc(S(C)(=O)=O)ncc2N(Cc2ccco2)Cc2cccs2)c(C)c1`, the “activity change, negative = inhibition” value was inactive: -34.8%.
Turning to `Cc1ccc(NC(=O)CSc2nc(=O)n(CCN3CCOCC3)c3c2CCC3)c(C)c1`, the “activity change, negative = inhibition” value is inactive: -31.4%.
On to `CC(=O)c1cccc(NC(=O)c2nc(-c3ccccc3)n(-c3cccc(Cl)c3)n2)c1`, for which the “activity change, negative = inhibition” value was inactive: -14.5%.
For `Cc1ccc(OCCCCn2nnc3sc4c(c3c2=O)CCCC4)cc1`, the “activity change, negative = inhibition” value is inactive: 7.01%.
Then `CC(=O)c1cc(-c2ccccc2)n(CCC(=O)NCc2ccc(C)cc2)c1C`, with inactive: -28.2%.
To `CCOc1ccccc1CNc1ccc2cc(S(=O)(=O)N3CCC(C)CC3)ccc2n1` belongs inactive: -29%; to `COc1ccc(-c2nn3c(=O)cc(CN4CCN(C(=O)c5ccc(OC)c(OC)c5)CC4)nc3s2)cc1`, inactive: -13.3%.
On to `COc1ccc(-c2noc(N(c3nc(-c4ccc(OC)c(OC)c4)no3)c3ccccc3OC)n2)cc1OC`, for which the “activity change, negative = inhibition” value was inactive: -0.894%.
In the case of `CCc1ccc(-n2c(=O)c3c(C)c(C)sc3n(CC(=O)NCc3ccc(C)cc3)c2=O)cc1`, the “activity change, negative = inhibition” value was inactive: 2.25%.
To `CCCCc1nn2c(=O)cc(COC(=O)c3cccc(NC(=O)CCc4ccccc4)c3)nc2s1` belongs inactive: 71.6%.
As for `CCCN(CCC)C(=O)Cn1c(=O)n(-c2ccccc2)c(=O)c2c3c(sc21)CCCC3`, the “activity change, negative = inhibition” value is inactive: -16.7%.
As to `O=S(=O)(NCc1nc2cccnc2n1Cc1ccccc1)c1ccc2c(c1)CCCC2`, the “activity change, negative = inhibition” value was inactive: -13.8%.
Then `N#C/C(=C/c1ccc(Cl)cc1)c1nc(-c2ccc(Br)cc2)cs1`, with inactive: -8.18%; and `Cc1ccc(NS(=O)(=O)c2ccc3[nH]c(=O)oc3c2)c(C)c1`, with inactive: -6.05%.
To `COc1cc2nc(SCC(=O)Nc3c(C)cc(C)cc3C)n3nc(CCn4c(C)nc5ccccc54)nc3c2cc1OC` belongs inactive: -21.3%.
To `CCOC(=O)c1c(S(=O)(=O)NCC(=O)N2CCN(c3ccccc3)CC2)c(C)n(C)c1C` belongs inactive: 3.96%; to `COc1ccccc1CNC(=O)CCn1c(=O)c2ccccc2n(CC(=O)Nc2ccc(C)cc2Cl)c1=O`, inactive: -8.32%; to `CC(=O)NCC(c1ccc2c(c1)OCO2)N1CCN(c2ccccc2)CC1` (stereo not given), inactive: -6.51%.
In the case of `Cn1c(=O)c(=O)n(C)c2cc(NC(=O)c3cccc(F)c3)c(Cl)cc21`, the “activity change, negative = inhibition” value is inactive: -2.3%.
As for `COc1ccc(N(CC(=O)NCc2ccccc2Cl)S(=O)(=O)c2c(C)nn(C)c2C)cc1`, the “activity change, negative = inhibition” value was inactive: -13.3%.
Then `CCOc1ccccc1CNC(=O)CCCn1ncn2c(cc3occc32)c1=O`, with inactive: -2.86%; and `CCOc1ccc(C(=O)c2cn(CC(=O)Nc3ccc(F)cc3)c3cc4c(cc3c2=O)OCO4)cc1`, with inactive: -12.9%; and `CN(C)CCCN(C(=O)c1ccc(Br)s1)c1nc2ccc(F)cc2s1`, with inactive: 3.01%.
`Cc1ccc2cccc(NC(=O)COc3cc(C)c(Cl)c(C)c3)c2n1`: the “activity change, negative = inhibition” value was inactive: -2.79%.
Then `Cc1nn(CC(=O)Nc2ccccc2C(F)(F)F)c(=O)c2cccn12`, with inactive: 3.99%.
Then `CCCCN(CC)CCNC(=O)CN1C(=O)COc2ccc(S(=O)(=O)N3CCCC3)cc21`, with inactive: -6.16%; and `Cc1ccc(CCNC(=O)CCn2nc(-c3ccccc3)ccc2=O)cc1`, with inactive: 1.08%.
`COc1ccc(NC(=O)c2ccc3nc(CCc4ccccc4)oc3c2)c(OC)c1`: the “activity change, negative = inhibition” value is inactive: 36.9%.
Then `CCOc1ccc(C(=O)Nc2c(C(=O)c3ccc(OC)cc3)oc3ccccc23)cc1`, with inactive: -1.33%; and `O=C(NCCc1ccccc1)c1ccc(Cn2c(SCc3cccc(F)c3)nc3cccnc32)cc1`, with inactive: -18.5%; and `CCn1c(NCc2ccc(OC)cc2)nc2ccccc21`, with inactive: 33.9%.
Consider `CCOc1ccc(NC(=O)c2ccc3c(=O)n4nc(Nc5ccccc5C)sc4nc3c2)cc1`, for which the “activity change, negative = inhibition” value is inactive: -1.32%.
Then `COc1cc(C(CC(=O)Nc2ccc(F)cc2F)N2Cc3ccccc3C2=O)cc(OC)c1OC` (stereo not given), with inactive: -25.7%.
For the compound `CCCCCn1cc2c(c1-c1ccc(Br)cc1)c(=O)n(C)c(=O)n2C`, the “activity change, negative = inhibition” value is inactive: -4.97%.
Turning to `CCc1ccccc1NC(=O)Cn1c(=O)n(-c2ccc(C)cc2)c(=O)c2c1c1cc(C)ccc1n2C`, the “activity change, negative = inhibition” value is inactive: 3.73%.
With `COc1ccc(OC)c(NC(=O)c2cc3cc(C)ccc3n2C)c1`, the “activity change, negative = inhibition” value was inactive: -14.5%.
On to `Cc1nc2ncnn2c(C)c1CCC(=O)N1CCN(c2ccccc2)CC1`, for which the “activity change, negative = inhibition” value is inactive: -2.46%.
Then `Cc1ccccc1CSc1nc2cc(C(=O)NC3CCCC3)ccc2c(=O)n1Cc1ccccc1`, with inactive: 0.453%; and `Cc1cc2c(cc1C)NC(CC(=O)Nc1ccccc1)C(=O)N2` (stereo not given), with inactive: -5.77%; and `CCN(Cc1ccccc1)C(=O)Cn1cc(S(=O)(=O)Cc2cccc(Cl)c2)c2ccccc21`, with inactive: -14.6%.
For the compound `CCCSc1ccc2nc(NC(=O)OC)[nH]c2c1`, the “activity change, negative = inhibition” value was inactive: -0.24%.
To `CCc1ccc(NC(=O)C(=O)NCC(c2cccnc2)N2CCN(Cc3ccccc3)CC2)cc1` (stereo not given) belongs inactive: -29%.
For `O=C(CCCn1c(=O)c2cccn2c2ccc(F)cc21)NCc1ccc(Cl)cc1`, the “activity change, negative = inhibition” value is inactive: -5.31%.
To `COC(=O)CC1Oc2ccccc2-n2cc(-c3ccccc3)nc21` (stereo not given) belongs inactive: -21.2%.
With `CC1CCN(C(=O)CSc2c(C(C)C)cnc3c2c(=O)n(C)c(=O)n3C)CC1`, the “activity change, negative = inhibition” value was inactive: -7.91%.
`CCOc1ccc(CNS(=O)(=O)c2ccc3[nH]c(=O)ccc3c2)cc1`: the “activity change, negative = inhibition” value is inactive: -24.4%.
Take `CCC(=O)Nc1ccc2nc(SCCOc3ccccc3)sc2c1`: the “activity change, negative = inhibition” value was inactive: -12.5%.
`CCCCOc1ccc(CNC(=O)c2ccc(NC(=O)N3CCCCc4ccccc43)cc2)cc1`: the “activity change, negative = inhibition” value was inactive: -11.6%.
On to `CC(=O)Nc1nonc1-c1nnc(SCC(=O)Nc2ccccc2)n1-c1ccccc1`, for which the “activity change, negative = inhibition” value is inactive: -21.1%.
As to `Cc1ccc(NC(=O)CSc2ncn[nH]2)cc1C`, the “activity change, negative = inhibition” value is inactive: -15.3%.
To `CNS(=O)(=O)c1cn(CC(=O)Nc2cccc(OC)c2)cc1S(=O)(=O)NC` belongs inactive: -12.4%; to `COC(=O)c1ccc(-n2c(CCC(=O)O)ccc2-c2ccc(C)cc2)cc1`, inactive: -4.92%; to `CCOC(=O)Cn1c(=O)n(CC2CCCO2)c2nc(-c3cccc(C)c3)nc(C(N)=O)c21` (stereo not given), inactive: -5.19%.
For the compound `Cc1ccc(C)c(N2CCN(Cc3nnc(-c4ccc5c(c4)OCO5)o3)CC2)c1`, the “activity change, negative = inhibition” value was inactive: -21%.
For `Cn1c(=O)oc2cc(S(=O)(=O)NC(Cc3ccccc3)C(=O)NCc3ccc(F)cc3)ccc21` (stereo not given), the “activity change, negative = inhibition” value is inactive: -7.47%.
In the case of `COc1ccccc1OC(C)C(=O)Nc1c(C(=O)c2ccc(Cl)cc2)oc2ccccc12` (stereo not given), the “activity change, negative = inhibition” value was inactive: -10.4%.
Then `CCn1c(C)c(C)c2cc(C(=O)NCCCN3CCCCC3)ccc21`, with inactive: -5.04%.
Regarding `Cc1ccc(N(CC(=O)NCc2ccc(F)cc2)S(=O)(=O)c2c(C)nn(C)c2C)cc1`, the “activity change, negative = inhibition” value was inactive: -7.6%.
As for `COc1cccc(CNC(=O)c2ccc3c(c2)nnn3C2CCCC2)c1`, the “activity change, negative = inhibition” value is inactive: -4.59%.
Turning to `CCCCSCCCNC(=O)c1cn(C)c2ccc(S(=O)(=O)N3CCCCC3)cc2c1=O`, the “activity change, negative = inhibition” value is inactive: -13.1%.
To `COc1ccc(-n2nc(C(=O)Nc3ccc(C)cn3)c3c4ccccc4n(C)c3c2=O)cc1` belongs inactive: -20.4%.
To `Cc1ccc(-n2cc(-c3ccccc3)nc2S(=O)(=O)CC(=O)Nc2ccc(F)cc2)cc1` belongs inactive: 49.1%; to `O=C(CNC(=O)c1ccccc1F)OCc1cc(=O)n2ccsc2n1`, inactive: -4.76%.
In the case of `CCN(CC)C(=O)Cn1c(=O)n(-c2ccc(OC)cc2OC)c(=O)c2c(C)c(C(=O)N(CC)CC)sc21`, the “activity change, negative = inhibition” value was inactive: -9.3%.
Take `COc1ccc(OC)c(NC(=O)Cn2ccc3ccccc3c2=O)c1`: the “activity change, negative = inhibition” value is inactive: -0.815%.
To `COc1ccccc1C(=O)Nc1nnc(SCc2cc(=O)c3cc(Cl)ccc3[nH]2)s1` belongs inactive: -9.74%; to `COc1ccc(NC(=O)c2c(-c3ccc(C)cc3)nnc3ccccc23)cc1Cl`, inactive: -28.7%; to `O=S(=O)(c1ccccc1)c1nc(-c2ccc(Cl)cc2Cl)oc1N1CCCCC1`, inactive: -9.26%.
Take `CCN(CC)CCCNC(=O)c1cn(CC)c2ccc(S(=O)(=O)N3CCc4ccccc4C3)cc2c1=O`: the “activity change, negative = inhibition” value was inactive: -4.12%.
As to `Cc1sc2ncn(CC(=O)N3CCN(c4ccc(F)cc4)CC3)c(=O)c2c1S(=O)(=O)N1CCCCC1`, the “activity change, negative = inhibition” value was inactive: -9.05%.
